The supplement of paper PMC12217912
The other results are listed elsewhere or left out. The full chains were built here from the parent and the listed change. Inactive controls read about 0.05.

B1: TEV protease; numbered along this chain (parent)
chain: MGESLFKGPRDYNPISSSICHLTNESDGHTTSLYGIGFGPFIITNKHLFRRNNGTLVVQSLHGVFKVKDTTTLQQHLVDGRDMIIIRMPKDFPPFPQKLKFREPQREERICLVTTNFQTKSMSSMVSDTSCTFPSGDGIFWKHWIQTKDGQCGSPLVSTRDGFIVGIHSASNFTNTNNYFTSVPKNFMELLTNQEAQQWVSGWRLNADSVLWGGHKVFMVKPEEPFQPVKEATQL

Variants of: B1
Assay: raw area under fraction-flipped curve 0-4 h after induction (AUC4h, not background-subtracted), DNA-recorder readout of cleavage of the substrate (dimensionless); higher = more cleavage of the substrate by the protease variant
Settings: temperature: 34 °C; time window: 0-4 h after rhamnose induction
Procedure: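 In vivo DNA recorder in E. coli TOP10(DE3) ΔrhaA at 34 °C. Each TEVp single-site mutant (parent TEVp 0) is paired with a single-site variant of the 7-mer TEVs (canonical ENLYFQ|S). The substrate sits between flexible linkers in a Bxb1-sfGFP-TEVs-SsrA fusion, so cleavage stabilises Bxb1 and speeds flipping of a recombination array, read by NGS. The value is the raw area under the fraction-flipped curve over 0-4 h after rhamnose induction (AUC4h), with ≥20 reads per time point. It is not background-subtracted; inactive controls average about 0.047.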
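Note: Bxb1 expression induced with 0.2% (w/v) L-rhamnose at OD600 near 0.5, cultures sampled hourly, flipped fraction per protease–substrate barcode pair counted by paired-end Illumina sequencing.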

Row | Variant | area with substrate ENAYFQS | area with substrate ENDYFQS | area with substrate ENEYFQS | area with substrate ENFYFQS | area with substrate ENNYFQS | area with substrate ENQYFQS | area with substrate ENSYFQS | area with substrate ENWYFQS | area with substrate ENCYFQS | area with substrate ENGYFQS | area with substrate ENHYFQS | area with substrate ENIYFQS | area with substrate ENKYFQS | area with substrate ENMYFQS | area with substrate ENRYFQS | area with substrate ENTYFQS | area with substrate ENVYFQS | area with substrate ENYYFQS | area with substrate ENPYFQS
1 | L235H | 0.0537 | 0.0656 | 0.038 | 0.0678 | 0.0572 | 0.0624 | 0.064 | 0.0546 |  |  |  |  |  |  |  |  |  |  | 
2 | E231W | 0.0623 | 0.0579 | 0.0742 | 0.0547 | 0.0467 | 0.0575 | 0.0625 | 0.0471 | 0.0636 | 0.0663 | 0.0632 | 0.103 | 0.0486 | 0.0629 | 0.0634 | 0.0673 | 0.0645 |  | 
3 | R51I |  | 0.0586 | 0.0622 | 0.0601 | 0.0677 | 0.0558 |  |  | 0.0702 |  | 0.0552 |  |  |  | 0.0572 |  | 0.0309 | 0.0616 | 
4 | L205V | 0.0643 | 0.0591 | 0.0795 | 0.0718 | 0.0573 |  | 0.0476 | 0.0535 |  |  |  | 0.0909 |  |  |  |  | 0.0688 |  | 
5 | L22G |  | 0.0543 | 0.0455 |  |  |  | 0.0512 | 0.0448 | 0.0517 |  | 0.0295 |  |  |  | 0.0357 |  | 0.0412 |  | 0.0398
6 | G214S | 0.0537 | 0.0656 | 0.0559 | 0.0695 |  | 0.0573 | 0.114 |  |  |  |  |  |  | 0.038 |  |  | 0.0572 |  | 
7 | G214C | 0.0579 |  | 0.0535 | 0.0504 |  |  |  |  |  | 0.0603 |  |  |  |  |  |  | 0.0803 |  | 
8 | A232R | 0.0688 | 0.0554 | 0.0627 | 0.0608 | 0.0485 | 0.0606 | 0.0569 |  |  | 0.0634 | 0.0609 |  | 0.0588 | 0.0703 | 0.0582 | 0.0654 | 0.0721 | 0.0691 | 
9 | A232Y | 0.0637 | 0.0664 | 0.0673 | 0.0596 | 0.0608 | 0.0589 | 0.0659 |  | 0.0759 | 0.069 |  | 0.0948 |  |  | 0.0583 | 0.0645 | 0.0642 |  | 
10 | A232Q | 0.0616 | 0.0675 | 0.0581 |  | 0.0673 |  | 0.0535 |  |  | 0.0558 | 0.0395 | 0.108 | 0.0555 | 0.0903 | 0.0676 | 0 | 0.0828 | 0.0595 | 0.0238
11 | V210Y | 0.0614 |  | 0.0633 | 0.0669 | 0.0677 | 0.0627 | 0.0402 |  | 0.0545 | 0.0516 | 0.0799 | 0.136 |  | 0.0686 | 0.0544 | 0.0438 | 0.0185 | 0.0719 | 0.0535
12 | R102I |  | 0.0465 | 0.051 |  |  | 0.0494 | 0.0726 |  | 0.0535 | 0.0502 | 0.0582 | 0.0463 |  | 0.0597 | 0.0513 | 0.0498 | 0.0489 |  | 0.0495
13 | R102Y |  | 0.0427 |  |  |  | 0.0312 | 0.0452 |  | 0.102 | 0.0636 | 0.0143 |  | 0.0443 |  |  |  |  |  | 
14 | F101N |  | 0.0499 | 0.0486 | 0.0441 |  | 0.047 | 0.0193 |  | 0.0388 |  | 0.0399 |  | 0.0411 | 0.0578 | 0.0493 | 0.0362 | 0.0552 | 0.0243 | 0.0365
15 | F101W |  | 0.0501 | 0.0706 | 0.0617 | 0.0525 | 0.0579 | 0.0459 | 0.0035 | 0.0545 |  |  |  | 0.0657 | 0.0892 |  | 0.0677 | 0.0823 | 0.0666 | 
16 | E223L | 0.061 | 0.061 | 0.0588 | 0.0566 | 0.0664 | 0.0565 | 0.0575 |  |  | 0.0703 | 0.0545 |  | 0.0643 |  | 0.0643 | 0.0671 | 0.07 |  | 0.061

Row | Variant | area with substrate ENAYFQS | area with substrate ENDYFQS | area with substrate ENEYFQS | area with substrate ENFYFQS | area with substrate ENNYFQS | area with substrate ENQYFQS | area with substrate ENSYFQS | area with substrate ENWYFQS | area with substrate ENCYFQS | area with substrate ENGYFQS | area with substrate ENHYFQS | area with substrate ENIYFQS | area with substrate ENKYFQS | area with substrate ENMYFQS | area with substrate ENRYFQS | area with substrate ENTYFQS | area with substrate ENVYFQS | area with substrate ENYYFQS | area with substrate ENPYFQS
17 | S209P | 0.0504 | 0.0451 |  | 0.0588 |  | 0.0582 |  |  |  |  | 0.0064 | 0.0677 | 0.0501 |  | 0.0471 | 0.0454 | 0.0546 | 0.0583 | 0.0678
18 | M219F | 0.0456 | 0.0617 | 0.0558 | 0.0574 |  | 0.0597 | 0.0553 |  | 0.0749 |  |  | 0.119 | 0.0572 |  | 0.11 | 0.0754 | 0.0877 |  | 
19 | K221E | 0.0649 | 0.0594 | 0.0539 | 0.0591 | 0.058 | 0.133 | 0.0644 |  | 0.0625 | 0.0608 | 0.0537 |  | 0.0545 |  | 0.0559 | 0.0611 | 0.0753 | 0.0211 | 0.0554
20 | P96R |  |  |  |  | 0.0555 | 0.0665 | 0.0544 |  | 0.0749 |  | 0.0643 | 0.138 | 0.0663 |  |  | 0.0814 |  |  | 
21 | L5R |  | 0.0463 |  | 0.0591 |  |  | 0.0709 |  | 0.0516 |  |  |  | 0.0331 |  |  |  |  | 0.0623 | 0.0493
22 | L5M |  | 0.0622 | 0.071 | 0.0572 | 0.0746 | 0.0615 | 0.0546 |  | 0.0627 | 0.0687 | 0.0465 | 0.128 | 0.0612 |  | 0.0775 | 0.0668 | 0.0928 |  | 0.0696
23 | P222W | 0.0624 | 0.0336 | 0.0625 |  | 0.0566 | 0.054 |  |  | 0.0651 | 0.0683 |  |  |  |  |  | 0.0609 | 0.0624 | 0.0768 | 0.0521
24 | I86N |  | 0.0461 |  | 0.0504 |  | 0.0431 | 0.0483 |  | 0.0486 |  |  |  |  |  |  | 0.045 | 0.0321 |  | 
25 | P228F | 0.0749 | 0.0623 | 0.0602 |  |  | 0.074 | 0.0689 |  | 0.063 |  |  | 0.0765 |  |  | 0.0622 |  | 0.0571 |  | 
26 | E224D | 0.0586 | 0.0543 | 0.0652 | 0.0541 | 0.0489 | 0.0609 | 0.0643 |  | 0.0648 | 0.0576 | 0.0611 | 0.114 |  |  | 0.0508 | 0.0598 | 0.102 |  | 
27 | E224Q | 0.0561 | 0.0601 | 0.071 |  | 0.0656 | 0.058 | 0.0571 |  | 0.0709 | 0.0611 |  | 0.11 | 0.0629 | 0.0687 | 0.0686 | 0.0701 | 0.0817 |  | 0.0765
28 | F95M |  |  |  |  |  | 0.0839 |  |  | 0.0949 |  |  |  | 0.061 |  |  |  |  |  | 
29 | G8N |  | 0.0561 |  | 0.0632 |  |  |  |  | 0.0455 |  |  |  |  |  | 0.0552 |  |  |  | 0.0603
30 | D79N |  | 0.0578 | 0.0441 |  | 0.049 |  | 0.0606 |  | 0.0658 | 0.0582 |  |  |  |  | 0.0555 | 0.0802 |  |  | 
31 | F218R | 0.0533 | 0.0577 | 0.0675 |  |  |  | 0.0671 |  |  |  |  |  |  |  |  | 0.0425 | 0.0578 | 0.0574 | 0.0611
